# Measurements as given in paper PMC6919601, “Identification of Plasmodium dipeptidyl aminopeptidase allosteric inhibitors by high throughput screening” (PLoS ONE, 2019).
# Hit rate of the full screen: of about 110,000 compounds, about 230 (0.21%) showed an effect of 50% or more. This is one part of the list.
# Target: DPAP1 (Plasmodium falciparum, UniProt Q8IIJ9)
# Assay: primary screen, percent inhibition; read by cleavage of a fluorogenic dipeptide substrate; higher = more effect of the substance
# Parameters: species or system P. falciparum D10 trophozoite lysates; single well
# 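Further: 30 min substrate incubation versus DMSO and 10 µM JCP410 controls.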
# DPAP1, sequence (Q8IIJ9 whole entry, looked up): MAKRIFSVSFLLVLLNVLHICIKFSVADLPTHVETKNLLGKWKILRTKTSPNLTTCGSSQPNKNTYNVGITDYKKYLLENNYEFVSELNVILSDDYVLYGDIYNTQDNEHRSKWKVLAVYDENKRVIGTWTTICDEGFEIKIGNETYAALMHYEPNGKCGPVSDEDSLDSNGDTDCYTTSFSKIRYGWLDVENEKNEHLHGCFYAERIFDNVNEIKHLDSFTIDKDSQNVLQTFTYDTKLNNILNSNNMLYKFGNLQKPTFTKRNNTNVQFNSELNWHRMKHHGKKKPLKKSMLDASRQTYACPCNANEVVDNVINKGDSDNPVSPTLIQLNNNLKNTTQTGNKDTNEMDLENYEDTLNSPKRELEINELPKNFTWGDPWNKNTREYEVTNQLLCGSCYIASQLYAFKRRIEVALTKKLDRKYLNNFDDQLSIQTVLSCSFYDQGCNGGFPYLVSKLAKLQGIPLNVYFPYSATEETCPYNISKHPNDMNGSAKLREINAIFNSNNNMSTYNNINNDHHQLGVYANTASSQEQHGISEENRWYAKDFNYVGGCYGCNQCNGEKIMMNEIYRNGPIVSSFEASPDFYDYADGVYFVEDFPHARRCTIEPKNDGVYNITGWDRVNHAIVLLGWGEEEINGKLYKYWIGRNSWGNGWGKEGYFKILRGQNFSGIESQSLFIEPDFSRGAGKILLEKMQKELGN
row,Compound,% Inhibition @ 10 uM [%]
1,O=C1C(c2ccc(F)cc2)N(Cc2ccccc2)C(=O)CN1C1CCCCCC1 (stereo not shown),2.79
2,C=CCOc1ccc(Cl)cc1CNC(C)(C)CO,-3.23
3,O=C(CCCN1C(=O)CSc2ncccc21)NCCN1CCOCC1,-4.15
4,CCN(CC)CC(O)c1ccc(C2CCCC2)cc1 (stereo not shown),3.05
5,Cc1sc2ncn(CC(=O)NCC(=O)N3CCC(Cc4ccccc4)CC3)c(=O)c2c1C,-3.93
6,Cc1cc(C)c(NC(=O)c2cc3c(C)nn(-c4ccccc4)c3s2)c(C)n1,3.72
7,COc1ccc(N2CC(C(=O)NC3=NCCS3)CC2=O)cc1 (stereo not shown),1.27
8,Oc1ccccc1-c1n[nH]c(/C=C/c2cccs2)n1,-8.71
9,CC12CC(/C(=C(O)\C=C\c3ccccc3)C(=O)N1)c1ccccc1O2 (stereo not shown),-1.29
10,COc1cc(/C=C(\C#N)c2nc3ccccc3[nH]2)cc(OC)c1OC,2.24
11,C=CCNC(=O)c1ccccc1NC(=O)C(C)SCc1ccccc1 (stereo not shown),5.65
12,Fc1ccc(C2=CCN(C3CCN(CCc4ccccc4)CC3)CC2)cc1,1.9
13,CCOc1ccc(C(=O)C2=C(O)C(=O)N(CCCN(C)C)C2c2ccc(C(C)(C)C)cc2)cc1C (stereo not shown),1.52
14,CCc1nn(CC(=O)NCCC(C)C)c(=O)c2cc3ccccc3n12,3
15,CCOCCCNC(=O)c1[nH]c(C)c(C(C)=O)c1C,1.23
16,CCOC(=O)C1=C(C(F)(F)F)Nc2ncnn2C1c1c(C)nn(-c2ccc(Cl)cc2)c1Cl (stereo not shown),-7.32
17,Cn1c(=O)n(C)c2cc(/C=C3/SC(=O)N(CC(=O)Nc4ccccc4)C3=O)ccc21,11.8
18,C/C(=N\O)c1ccc(OCCOc2ccc([N+](=O)[O-])cc2)cc1,-5.28
19,CCN(CC)CCNC(=O)CCc1nnc2ccc(N3CCC(C)CC3)nn12,-2.26
20,CCOc1ccc(CCN2C(=O)CCC2(C)C(=O)NC2CCCC(C)C2C)cc1OCC (stereo not shown),-4.97
21,COCCN1C(=O)c2c(C)nc3ccccc3c2C1=O,-8.18
22,CCC(C)(C)C1CCc2nc3sc(C(=O)Nc4ccc(S(N)(=O)=O)cc4)c(N)c3cc2C1 (stereo not shown),-8.28
23,CC1=CC2=NC(=O)/C(=C\c3ccc(-c4cccc(C(=O)O)c4)o3)C(=N)N2O1,3.63
24,Fc1ccc(CN2CCN(Cc3ccccc3)CC2)cc1F,3.1
25,CC1CCCC(N2CCN(C)CC2)C1 (stereo not shown),-1.81

row,Compound,% Inhibition @ 10 uM [%]
1,COCCNCc1c(C(=O)O)c(C)n(Cc2ccc(F)cc2)c1C,-11.3
2,O=C(c1cc(-c2ccccc2)[nH]n1)N1CCN(C2CCCCC2)CC1,-1.3
3,NC(=O)C1(N2CCCCC2)CCN(c2nc3ccccc3c3nc(-c4cccnc4)nn23)CC1,0.981
4,CCOc1cc(CN2CCCN(C)CC2)ccc1OC,-1.86
5,CCC(CO)NS(=O)(=O)c1ccc(OC)c(-c2nnc3c4ccccc4c(C)nn23)c1 (stereo not shown),2.31
6,COc1ccc(C(=O)CC(=O)c2ccc(F)cc2)cc1,-6.58
7,CC1C(=O)C(C)C(c2ccc(O)cc2)NC1c1ccc(O)cc1 (stereo not shown),2.65
8,Cc1ccc2oc(-c3ccccc3)cc2c1,2.45
9,N#Cc1ccccc1Cn1c(=O)n(Cc2ccccc2)c(=O)c2c3c(sc21)CCC3,3.5
10,O=C(Nc1sc2c(c1C(=O)O)CCC2)c1ccc(Cl)cc1,13
11,CCCCCc1ccc(-c2ccc(-c3noc(-c4cccc(C)c4)n3)cc2)cc1,-4.08
12,COc1ccc(N2CCN(c3oc(COc4ccccc4OC)nc3C#N)CC2)cc1,2.38
13,COc1ccc(NS(=O)(=O)C[C@H](CCc2ccccc2)NC(=O)[C@H](CC(C)C)NC(=O)c2ccc3[nH]ccc3c2)cc1,5.05
14,CC(C)(C)OC(=O)NCc1cccc(C(=O)N[C@@H](CC2CCCCC2)C(=O)NCC#N)c1,-0.214
15,CCOC(=O)c1c(-n2ncnc2-c2sccc2C)sc2c1CCCC2,-3.6
16,CCc1ccc(N2CC(C(=O)Nc3c(C)cc(C)cc3C)CC2=O)cc1 (stereo not shown),-0.28
17,O=C1CCCCC1NC(=O)[C@H](CS(=O)(=O)Cc1ccccc1OC(F)F)NC(=O)N1CCOCC1 (stereo partly shown),8.48
18,Cc1ccccc1Nc1nc(-c2cccs2)cs1,-1.85
19,Cc1ccccc1OCC(=O)Nc1nnc(SCc2ccccc2F)s1,16.1
20,Cn1c(=O)c2sccc2n2c(CCCC(=O)NCc3ccc(F)cc3)nnc12,16
21,COC(=O)c1c(NC(=O)COc2cc(Cl)ccc2Cl)sc2c1CCCC2,4.35
22,Cc1ccc(-c2cc(C(=O)NCc3cccnc3)c3ccccc3n2)s1,2.65
23,CCN(CC)S(=O)(=O)c1ccc(NC(=O)COc2ccc(Br)cc2Cl)cc1,-3.45
24,CSc1nc(C)nc(-c2ccccc2O)n1,-6.65
25,Cc1ccc(/C=C(\C#N)c2nc(-c3ccc(Cl)c(Cl)c3)cs2)cc1,-0.771

row,Compound,% Inhibition @ 10 uM [%]
1,Cc1c(C)n(Cc2ccc(Cl)cc2)c2ccc(C(=O)NCCCN3CCN(C)CC3)cc12,0.747
2,Cc1cccc(NS(=O)(=O)c2ccc(NS(=O)(=O)c3ccc4c(c3)OCCO4)cc2)c1,-0.99
3,CC1(C)CC(=O)C2=C(C1)N(c1c(F)cccc1F)C(N)=C(C#N)C2c1ccsc1 (stereo not shown),3.46
4,Cc1cccc(C)c1OCC(=O)Nc1sc2c(c1C(=O)NCC1CCCO1)CCCC2 (stereo not shown),-5.35
5,CC(C)C[C@H](NC(=O)OCc1ccc(Cl)cc1)C(=O)NCC#N,-4.72
6,CCCc1cc(-c2[nH]ncc2-c2ccc3c(c2)OCCCO3)c(O)cc1O,11.3
7,O=C(Nc1cc2ccc(O)cc2oc1=O)c1ccc(F)cc1,0.032
8,Cc1ccc(N2C(=O)CSC2c2ccccc2)cc1 (stereo not shown),0.467
9,COc1cc(/C=C/c2n[nH]c(-c3ccccc3O)n2)cc(OC)c1OC,-1.11
10,O=C(COc1ccccc1)N1c2ccccc2Sc2ccccc21,1.41
11,CCOc1ccc(N(CC(=O)NC2CC3CCC2C3)S(=O)(=O)c2ccc(Cl)cc2)cc1 (stereo not shown),4.83
12,CCC1=C(c2ccc(C)cc2)S(=O)(=O)N=C1NCC(=O)NC1CCN(Cc2ccccc2)CC1,3.82
13,Cc1cc(C)c2c(n1)SCC(=O)N2CC(=O)NC1CCN(Cc2ccccc2)CC1,4.02
14,CCc1nc(C)ccc1OCC(N)=O,-5.32
15,CCOP(=O)(OCC)/C(=C(\NC(=O)c1ccccc1)C(=O)Nc1ccc(Cl)cn1)c1ccccc1,-5.38
16,Cc1cc(C)c2c(-n3cccc3)nn(CC(=O)NCCc3ccc(Cl)cc3)c2n1,7.81
17,Cc1nc2c(-c3ccccc3)c(C)nn2c(C)c1CC(=O)NC(C)(C)C,-2.45
18,COc1ccc(CCNC(=O)C2CCC(C/N=c3/c(N4CCCC4)c(O)c3=O)CC2)cc1OC (stereo not shown),-0.447
19,Cc1ccc(NC(=O)CCN2C(=O)c3ccccc3C2=O)c(C)c1,-6.02
20,O=C(NCCC1=CCCCC1)c1cc(-c2ccc(Br)cc2)n[nH]1,1.76
21,CN1C(=O)/C(=C\c2cn(C)c3ccccc23)S/C1=N\c1ccccc1,-1.84
22,Cc1cc(=O)n2nc(N3CCC(C(=O)NC4CCC(C)CC4)CC3)sc2n1 (stereo not shown),1.38
23,O=C(COc1ccc(S(=O)(=O)NC2CCCC2)cc1)Nc1cc(C(F)(F)F)ccc1Cl,-2.32
24,COc1ccc(NC(=O)c2ccc(N(C)S(=O)(=O)c3ccccc3)cc2)cc1OC,-1.43
25,CCN(CC)C(=O)C1Sc2nnc(C)n2NC1c1ccc(C)cc1 (stereo not shown),1.72

row,Compound,% Inhibition @ 10 uM [%]
1,CCN1CCC(N2CCN(CCO)CC2)CC1,3.68
2,CCOc1ccccc1C1C(C#N)=C(SCC(=O)NCc2ccccc2)N=C(C)/C1=C(/O)OC (stereo not shown),2.75
3,Cc1ccc(S(=O)(=O)c2nc(-c3cccs3)oc2NCCCN(C)C)cc1,-1.36
4,CCOC(=O)N1CCN(C(=O)C2CCN(c3ncnc4c3sc3cccc(F)c34)CC2)CC1,2.65
5,CCCNC(=O)C(CC)n1c2ccccc2c2cnnc(O)c21 (stereo not shown),-0.281
6,CCCCN(CCCC)S(=O)(=O)c1ccc2oc(C(=O)N3CCOCC3)c(C)c2c1,1.16
7,O=C(Cc1ccc(Br)cc1)NCc1ccccn1,-2.37
8,CSc1nc(N)nc(SCC(=O)NCc2ccccc2)c1C#N,6.74
9,O=C(c1ccc(N2C(=O)C3C4C=CC(C4)C3C2=O)cc1)N1CCCCC1 (stereo not shown),-4.65
10,COc1cc(OC)c2cc(C(=O)O)[nH]c2c1,0.883
11,Cn1c(=O)c2c(nc(SCC(=O)Nc3ccccc3)n2Cc2ccccc2Cl)n(C)c1=O,4.09
12,O=C(O)c1ccc(NCc2ccc(F)cc2)cc1,-3.43
13,Cc1cc(C)n(S(=O)(=O)c2cc(Cl)ccc2Cl)n1,5.7
14,CCOCCCn1c(S)nnc1-c1nn(C)cc1Cl,3.94
15,Cc1ccc(-n2nc(C)c(/C=N/c3nc4ccc(Cl)cc4s3)c2O)cc1,8.6
16,CNC(=S)NCc1ccc2c(c1)cc(C)n2C,-3.7
17,COc1ccc(C2C(C(=O)Nc3ccc(F)cc3)=C(C)Nc3nc(CCCO)nn32)cc1OC (stereo not shown),-10.2
18,CN(C)CCCN(CCCN(C)C)C1CC2CCC1C2 (stereo not shown),-1.5
19,Cc1ccc(C)c(OCCCCn2ccnc2)c1,-5.9
20,O=C(NCc1cccs1)C1CCCN(S(=O)(=O)c2ccc(Br)s2)C1 (stereo not shown),-1.92
21,NC(=O)C1CCN(Cc2ccccc2C(F)(F)F)CC1,-2.95
22,COc1cccc(C2C(C#N)=C(N)Oc3[nH]nc(-c4ccccn4)c32)c1 (stereo not shown),-4.43
